Test results taken from the supplement of paper PMC11543636.

Experiments:
Test in all cases: Isolates counted by MIC; Broth microdilution on commercial drug-susceptibility plates, read by two operators.
[1] = system: Mycobacterium tuberculosis lineage 4 on plate UKMYC5 (155 isolates)
[2] = system: Mycobacterium tuberculosis lineage 4 on plate UKMYC6 (614 isolates)
[3] = system: Mycobacterium tuberculosis lineage 2 on plate UKMYC5 (530 isolates)
[4] = system: Mycobacterium tuberculosis lineage 2 on plate UKMYC6 (1564 isolates)
[5] = system: Mycobacterium tuberculosis lineage 3 on plate UKMYC6 (380 isolates)
[6] = system: Mycobacterium tuberculosis lineage 2 on plate UKMYC6 (1565 isolates)
[7] = system: Mycobacterium tuberculosis lineage 3 on plate UKMYC6 (383 isolates)
[8] = system: Mycobacterium tuberculosis lineage 4 on plate MYCOTB (1613 isolates)
[9] = system: Mycobacterium tuberculosis lineage 1 on plate MYCOTB (31 isolates)
[10] = system: Mycobacterium tuberculosis lineage 4 on plate UKMYC6 (615 isolates)
[11] = system: Mycobacterium tuberculosis lineage 2 on plate MYCOTB (3815 isolates)

COc1nc2ccc(Br)cc2cc1[C@@H](c1ccccc1)[C@@](O)(CCN(C)C)c1cccc2ccccc12 [bedaquiline]
isolate count
Conditions	[1]	[2]	[3]	[4]	[5]
MIC: 0.015 mg/L	–	41 [S]	3 [S]	120 [S]	5 [S]
MIC: 0.03 mg/L	55 [S]	204 [S]	173 [S]	557 [S]	14 [S]
MIC: 0.06 mg/L	71 [S]	334 [S]	272 [S]	736 [S]	272 [S]
MIC: 0.12 mg/L	13 [S]	14 [S]	54 [S]	82 [S]	69 [S]
MIC: 0.25 mg/L	2 [S]	11 [S]	2 [S]	30 [S]	19 [S]
MIC: 0.5 mg/L	–	1 [R]	1 [R]	2 [R]	1 [R]
MIC: 1 mg/L	1 [R]	–	–	–	–
MIC: >1 mg/L	–	–	–	2 [R]	–
MIC: >2 mg/L	–	–	1 [R]	–	–
MIC: ≤0.008 mg/L	–	9 [S]	–	32 [S]	–
MIC: ≤0.015 mg/L	13 [S]	–	22 [S]	1 [S]	–
MIC: ≥1 mg/L	–	–	–	2 [R]	–
MIC: ≥2 mg/L	–	–	2 [R]	–	–

CC[C@@H](CO)NCCN[C@@H](CC)CO [ethambutol]
isolate count
Conditions	[1]	[3]	[6]	[7]	[8]	[9]	[10]	[11]
MIC: 0.12 mg/L	–	2 [S]	2 [S]	–	–	–	–	–
MIC: 0.25 mg/L	3 [S]	–	13 [S]	2 [S]	–	–	1 [S]	–
MIC: 0.5 mg/L	3 [S]	7 [S]	133 [S]	9 [S]	–	–	28 [S]	–
MIC: 1 mg/L	99 [S]	305 [S]	900 [S]	162 [S]	899 [S]	17 [S]	364 [S]	2270 [S]
MIC: 2 mg/L	47 [S]	169 [S]	428 [S]	201 [S]	556 [S]	11 [S]	207 [S]	1130 [S]
MIC: 4 mg/L	2 [S]	31 [S]	44 [S]	9 [S]	65 [S]	–	11 [S]	112 [S]
MIC: 8 mg/L	–	–	35 [R]	–	11 [R]	2 [R]	3 [R]	95 [R]
MIC: 16 mg/L	–	–	6 [R]	–	8 [R]	–	–	32 [R]
MIC: >8 mg/L	–	1 [R]	–	–	–	–	–	–
MIC: >32 mg/L	–	–	1 [R]	–	1 [R]	–	–	–
MIC: ≤0.5 mg/L	–	–	–	–	70 [S]	–	–	170 [S]
MIC: ≥8 mg/L	1 [R]	15 [R]	–	–	–	–	–	–
MIC: ≥32 mg/L	–	–	3 [R]	–	3 [R]	1 [R]	1 [R]	13 [R]

CCc1cc(C(N)=S)ccn1 [ethionamide]
Conditions	isolate count
[1], MIC: 0.5 mg/L	11 [S]
[1], MIC: 1 mg/L	81 [S]
[1], MIC: 2 mg/L	41 [S]
[1], MIC: 4 mg/L	18 [S]
[1], MIC: ≤0.25 mg/L	1 [S]
[1], MIC: ≥8 mg/L	3 [R]
[2], MIC: 0.5 mg/L	140 [S]
[2], MIC: 1 mg/L	292 [S]
[2], MIC: 2 mg/L	143 [S]
[2], MIC: 4 mg/L	16 [S]
[2], MIC: >8 mg/L	2 [R]
[2], MIC: ≤0.25 mg/L	11 [S]
[2], MIC: ≥8 mg/L	10 [R]
[3], MIC: 0.5 mg/L	78 [S]
[3], MIC: 1 mg/L	277 [S]
[3], MIC: 2 mg/L	75 [S]
[3], MIC: 4 mg/L	75 [S]
[3], MIC: >8 mg/L	4 [R]
[3], MIC: ≤0.25 mg/L	7 [S]
[3], MIC: ≥8 mg/L	14 [R]
[6], MIC: 0.5 mg/L	692 [S]
[6], MIC: 1 mg/L	674 [S]
[6], MIC: 2 mg/L	73 [S]
[6], MIC: 4 mg/L	18 [S]
[6], MIC: >8 mg/L	16 [R]
[6], MIC: ≤0.25 mg/L	58 [S]
[6], MIC: ≥8 mg/L	34 [R]
[7], MIC: 0.5 mg/L	69 [S]
[7], MIC: 1 mg/L	239 [S]
[7], MIC: 2 mg/L	61 [S]
[7], MIC: 4 mg/L	4 [S]
[7], MIC: ≤0.25 mg/L	7 [S]
[7], MIC: ≥8 mg/L	3 [R]
[8], MIC: 0.6 mg/L	653 [S]
[8], MIC: 1.2 mg/L	724 [S]
[8], MIC: 2.5 mg/L	90 [S]
[8], MIC: 5 mg/L	35 [R]
[8], MIC: 10 mg/L	10 [R]
[8], MIC: 20 mg/L	3 [R]
[8], MIC: >40 mg/L	1 [R]
[8], MIC: ≤0.3 mg/L	88 [S]
[8], MIC: ≥40 mg/L	9 [R]
[9], MIC: 0.6 mg/L	5 [S]
[9], MIC: 1.2 mg/L	14 [S]
[9], MIC: 2.5 mg/L	7 [S]
[9], MIC: 20 mg/L	1 [R]
[9], MIC: ≤0.3 mg/L	2 [S]
[9], MIC: ≥40 mg/L	2 [R]
[11], MIC: 0.6 mg/L	2440 [S]
[11], MIC: 1.2 mg/L	728 [S]
[11], MIC: 2.5 mg/L	91 [S]
[11], MIC: 5 mg/L	66 [R]
[11], MIC: 10 mg/L	38 [R]
[11], MIC: 20 mg/L	13 [R]
[11], MIC: >40 mg/L	1 [R]
[11], MIC: ≤0.3 mg/L	387 [S]
[11], MIC: ≥40 mg/L	52 [R]

COc1c(N2C[C@@H]3CCCN[C@@H]3C2)c(F)cc2c(=O)c(C(=O)O)cn(C3CC3)c12 [moxifloxacin]
isolate count
Conditions	[1]	[3]	[4]	[7]	[8]	[9]	[10]	[11]
MIC: 0.12 mg/L	30 [S]	99 [S]	289 [S]	258 [S]	93 [S]	1 [S]	134 [S]	286 [S]
MIC: 0.25 mg/L	72 [S]	289 [S]	898 [S]	18 [S]	656 [S]	13 [S]	318 [S]	2080 [S]
MIC: 0.5 mg/L	46 [S]	96 [S]	274 [S]	1 [S]	733 [S]	13 [S]	125 [S]	1090 [S]
MIC: 1 mg/L	3 [S]	8 [S]	18 [S]	–	38 [S]	2 [S]	6 [S]	49 [S]
MIC: 2 mg/L	–	19 [R]	24 [R]	1 [R]	17 [R]	1 [R]	6 [R]	57 [R]
MIC: 4 mg/L	–	–	–	–	14 [R]	1 [R]	–	89 [R]
MIC: >4 mg/L	–	–	14 [R]	–	–	–	3 [R]	–
MIC: >8 mg/L	–	–	–	–	3 [R]	–	–	2 [R]
MIC: ≤0.06 mg/L	4 [S]	8 [S]	24 [S]	105 [S]	34 [S]	–	13 [S]	89 [S]
MIC: ≥4 mg/L	–	11 [R]	23 [R]	–	–	–	10 [R]	–
MIC: ≥8 mg/L	–	–	–	–	25 [R]	–	–	66 [R]

CC1COc2c(N3CCN(C)CC3)c(F)cc3c(=O)c(C(=O)O)cn1c23 (stereo not given) [ofloxacin]
isolate count
Conditions	MIC: 0.5 mg/L	MIC: 1 mg/L	MIC: 2 mg/L	MIC: 4 mg/L	MIC: 8 mg/L	MIC: 16 mg/L	MIC: >32 mg/L	MIC: ≤0.25 mg/L	MIC: ≥32 mg/L
[8]	187	1200	107	12	21	17	2	49	19
[9]	–	10	19	–	–	1	–	–	1
[11]	899	2500	77	44	69	99	–	97	34

CO[C@H]1/C=C/O[C@@]2(C)Oc3c(C)c(O)c4c(O)c(c(/C=N/N5CCN(C)CC5)c(O)c4c3C2=O)NC(=O)/C(C)=C\C=C\[C@H](C)[C@H](O)[C@@H](C)[C@@H](O)[C@@H](C)[C@H](OC(C)=O)[C@@H]1C [rifampicin]
Conditions	isolate count
[1], MIC: 0.12 mg/L	85 [S]
[1], MIC: 0.25 mg/L	33 [S]
[1], MIC: 0.5 mg/L	3 [S]
[1], MIC: >4 mg/L	2 [R]
[1], MIC: ≤0.06 mg/L	28 [S]
[1], MIC: ≥4 mg/L	4 [R]
[3], MIC: 0.06 mg/L	4 [S]
[3], MIC: 0.12 mg/L	257 [S]
[3], MIC: 0.25 mg/L	115 [S]
[3], MIC: 0.5 mg/L	8 [S]
[3], MIC: 1 mg/L	6 [R]
[3], MIC: >4 mg/L	9 [R]
[3], MIC: ≤0.06 mg/L	98 [S]
[3], MIC: ≥4 mg/L	33 [R]
[4], MIC: 0.06 mg/L	303 [S]
[4], MIC: 0.12 mg/L	550 [S]
[4], MIC: 0.25 mg/L	454 [S]
[4], MIC: 0.5 mg/L	62 [S]
[4], MIC: 1 mg/L	8 [R]
[4], MIC: 2 mg/L	8 [R]
[4], MIC: 4 mg/L	10 [R]
[4], MIC: >8 mg/L	86 [R]
[4], MIC: ≤0.03 mg/L	49 [S]
[4], MIC: ≥8 mg/L	34 [R]
[7], MIC: 0.06 mg/L	7 [S]
[7], MIC: 0.12 mg/L	143 [S]
[7], MIC: 0.25 mg/L	199 [S]
[7], MIC: 0.5 mg/L	25 [S]
[7], MIC: 1 mg/L	2 [R]
[7], MIC: 2 mg/L	1 [R]
[7], MIC: ≤0.03 mg/L	1 [S]
[7], MIC: ≥8 mg/L	5 [R]
[8], MIC: 0.25 mg/L	466 [S]
[8], MIC: 0.5 mg/L	85 [S]
[8], MIC: 1 mg/L	6 [R]
[8], MIC: 2 mg/L	1 [R]
[8], MIC: 4 mg/L	3 [R]
[8], MIC: 8 mg/L	2 [R]
[8], MIC: >16 mg/L	19 [R]
[8], MIC: ≤0.12 mg/L	980 [S]
[8], MIC: ≥16 mg/L	51 [R]
[9], MIC: 0.25 mg/L	8 [S]
[9], MIC: 1 mg/L	1 [R]
[9], MIC: ≤0.12 mg/L	20 [S]
[9], MIC: ≥16 mg/L	2 [R]
[10], MIC: 0.06 mg/L	75 [S]
[10], MIC: 0.12 mg/L	325 [S]
[10], MIC: 0.25 mg/L	166 [S]
[10], MIC: 0.5 mg/L	15 [S]
[10], MIC: 1 mg/L	3 [R]
[10], MIC: 4 mg/L	1 [R]
[10], MIC: >8 mg/L	12 [R]
[10], MIC: ≤0.03 mg/L	11 [S]
[10], MIC: ≥8 mg/L	7 [R]
[11], MIC: 0.25 mg/L	1400 [S]
[11], MIC: 0.5 mg/L	313 [S]
[11], MIC: 1 mg/L	32 [R]
[11], MIC: 2 mg/L	24 [R]
[11], MIC: 4 mg/L	14 [R]
[11], MIC: 8 mg/L	8 [R]
[11], MIC: >16 mg/L	41 [R]
[11], MIC: ≤0.12 mg/L	1710 [S]
[11], MIC: ≥16 mg/L	274 [R]

Each value is the number of isolates with that result; steps that no isolate showed are left empty. MIC of clinical M. tuberculosis isolates from a national drug-resistance survey, broth microdilution on MYCOTB, UKMYC5 or UKMYC6 plates (ranges differ by plate), read after 10-21 days; higher = less susceptible. Call: the paper's susceptible [S] / resistant [R] by the drug's critical concentration (it differs by plate for some drugs); calls for ofloxacin and levofloxacin are not shown. MYCOTB plates carry ofloxacin; the paper halves those MICs to stand for levofloxacin, and they are doubled back here. The top step of a plate is printed with and without '>' in the source and is marked '>=' when plain; the plain lowest step of rifampicin and kanamycin on MYCOTB is marked '<='. Isolates that the source marks as part of the WHO data set are not listed here.
